# Test results: article PMC12040169 (PLOS Biology, 2025)
# The list shows a part of the results.
# System: T1, C. trachomatis L2/434/Bu expressing GFP (CTL2-GFP)
# T1 construct: L2/434/Bu GFP intracellular growth in HeLa cells
# Parameters: species or system HeLa; C. trachomatis total inclusion area by high-content imaging, normalised to DMSO
# Settings: total inclusion area; 28.5 h, 10 µM; inhibitor
# Outline: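 Post-fluorescence-read fixation, DNA staining with Hoechst and high-content imaging; GFP inclusion area and number per well, and nuclei counts, used as proxies for bacterial growth and host viability.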
row,Compound,% of control remaining
1,O=C(Nc1ccc(F)cc1)c1[nH]c2ccccc2c1NS(=O)(=O)c1ccc(Cl)c(Cl)c1Cl [CBK050091],53.6864
2,Cc1cccc(-c2ncc(C(=O)NCCCN3CCCC3=O)cc2-c2ccco2)c1 [CBK037455],110.516
3,O=C(Nc1ccccc1[N+](=O)[O-])C(c1ccccc1)N1CCOCC1 (stereo not drawn) [CBK269390],99.3465
4,CCn1cc(CN2CCC(O)(c3ccc(C)cc3)CC2)cn1 [CBK282735],115.121
5,O=C(c1cc(F)c(F)cc1F)N1CCC2(CCCN(CCS(=O)(=O)c3ccccc3)C2)C1 (stereo not drawn) [CBK132003],72.571
6,CCN(CC)C(=O)CSc1nnc[nH]1 [CBK026212],87.8881
7,CS(=O)(=O)c1ccc(Cn2c(=O)n(S(=O)(=O)c3ccccc3)c3ccccc32)cc1 [CBK106530],107.893
8,O=C(CSc1nnc(-c2ccccn2)[nH]1)NC1CC2CCC1C2 (stereo not drawn) [CBK269994],70.4864
9,COc1cncc(-c2cc(N3CCN(S(=O)(=O)c4ccc(Cl)cc4)CC3)ncn2)c1 [CBK091162],71.5687
10,CCn1cc(Cl)c(C(=O)NC2CCN(c3cc(C)n[nH]3)CC2)n1 [CBK304322],110.116
11,COc1ccc(N2CC(NC(=O)Nc3ccccn3)CC2=O)cc1 (stereo not drawn) [CBK287642],93.1157
12,CC(C)c1nccn1-c1ccc(NC(=O)Cn2ccnc2)cc1 [CBK281381],88.2485
13,Cc1sc(NC(=O)CC(C)(C)CC(=O)Nc2sc(C)c(C)c2C(=O)O)c(C(=O)O)c1C [CBK296094],92.1874
14,CC(C)C12CN3CC(C(C)C)(CN(C1)C3c1c[nH]c3ccccc13)C2=O (stereo not drawn) [CBK263740],112.882
15,CCOC(=O)c1ccc(COc2cccc(-c3cnc4ccccc4n3)c2)cc1 [CBK266395],89.9662
16,c1ccc2sc(-c3cc(N4CCN(CCN5CCCC5)CC4)ncn3)cc2c1 [CBK091172],79.8308
17,C[C@]12C(=O)c3ccccc3NC(=O)C1[C@H]2C(=O)N1CCCCC1 (stereo partly drawn) [CBK285281],85.7828
18,COc1cccc(C2C=C(c3cccnc3)Nc3ncnn32)c1OC (stereo not drawn) [CBK288062],124.414
19,CSc1nc(N)n(-c2cc(C(F)(F)F)cc(C)n2)n1 [CBK005941],106.777
20,COc1ccc(-c2cc(=O)oc3cc(OCC(=O)c4cc5ccccc5o4)ccc23)cc1 [CBK265634],91.6612
21,Cc1cc2c(cc1Br)NC(=O)/C2=N\O [CBK288453],44.2442
22,CC(Oc1cccc(Cl)c1)C(=O)NCc1ccc(S(N)(=O)=O)cc1 (stereo not drawn) [CBK265477],114.365
23,Nc1ccc(-c2cncc(N3CCN(c4ccncc4)CC3)n2)cc1 [CBK065681],110.315
24,COc1ccc(C(NC(=O)C2CCN(C(=O)OCc3ccccc3)CC2)c2ccccc2C)cn1 (stereo not drawn) [CBK059726],95.2427
25,CC(C)c1cccc(-n2cc(O)c(C(=O)NCCCn3cccn3)n2)c1 [CBK305360],52.7529
26,CCOC(=O)c1ccccc1OC(=O)c1ccc2c(c1)C1C=CCC1C(C(=O)O)N2 (stereo not drawn) [CBK265155],117.586

row,Compound,% of control remaining
1,CN1C(=O)CC2(C1=O)C(=O)N(CCCn1c(=O)n(C)c3ccccc31)c1ccc(F)cc12 (stereo not drawn) [CBK075441],76.0508
2,COc1ccccc1CC(=O)N1CCC(c2onc3c2CCC3)CC1 [CBK284464],40.0038
3,CCCC(=O)N1C2CCC1c1cnc3cc(-c4ccco4)nn3c1C2 (stereo not drawn) [CBK284383],110.232
4,O=C(O)CCc1ccc(-c2ccc(Nc3cccnc3)nc2)cc1 [CBK037768],132.945
5,CC(NC(=O)CCn1cncn1)c1cccs1 (stereo not drawn) [CBK282199],117.503
6,CN(C)CCN(Cc1ccccc1)C(=O)NCc1c(Cl)cccc1Cl [CBK155107],85.6362
7,CC(=O)c1sc(=S)n(N(C)C)c1C [CBK006774],67.7894
8,OC(COc1ccccc1)CN1CCN(Cc2ccccc2)CC1 (stereo not drawn) [CBK074852C],86.4205
9,COc1ccc2[nH]cc(C3CCN(Cc4nc(C)no4)CC3)c2c1 [CBK305982],85.1401
10,COC(=O)NC(O)C(=O)c1ccco1 (stereo not drawn) [CBK027757],14.094
11,Cc1ccc(-c2nnc(-c3cccc(S(=O)(=O)N4CCOCC4)c3)o2)cc1 [CBK263215],92.0624
12,CC1(C)CC(NC(=O)Cn2ccc3ccccc32)CCO1 (stereo not drawn) [CBK304347],69.9124
13,COc1cccc(OC)c1-c1cn2ccnc2c(NC2CC2)n1 [CBK038020],154.463
14,Cc1cc(NC(=O)N2CCCN(CC3CCCCC3)CC2)no1 [CBK306239],24.369
15,Cc1ccc(C)c(-n2nnnc2SCC(=O)c2ccc(Cl)cc2Cl)c1 [CBK141941],78.7719
16,O=C(CCNS(=O)(=O)c1ccc(Cl)cc1)Nc1ccncc1 [CBK269244],100.197
17,O=C(O)c1ccc(N2C(=O)CC(N3CCN(c4cccc(C(F)(F)F)c4)CC3)C2=O)cc1 (stereo not drawn) [CBK287228],94.8455
18,COc1cccc2ncn(CCCc3nc(C)c(C)s3)c(=O)c12 [CBK307208],91.13
19,CCCN1CCN(S(=O)(=O)c2ccc(C)cc2)CC1 [CBK270326],120.478
20,O=C(Cc1ccccc1)N1CCN(S(=O)(=O)N2CCCCC2)CC1 [CBK269097],93.764
21,CCn1c(=O)n(CCC(N)=O)c2cc(S(=O)(=O)N(C)C)ccc21 [CBK305577],61.6401
22,Cc1onc(-c2ccccc2Cl)c1C(=O)N(Cc1nc(-c2ccccc2)no1)C(C)C [CBK269289],99.9016
23,O=C(NS(=O)(=O)c1cccc(-c2nnco2)c1)C1CC1C1CCCCC1 (stereo not drawn) [CBK305924],15.5214
24,O=C(O)C1CCCCC1C(=O)N1CCc2ccccc2C1 (stereo not drawn) [CBK286594],90.1755
25,O=C(CN1C(=O)COc2ccccc21)NCc1ccco1 [CBK269682],69.2218
